The values that follow come from patent publication US8728516B2, “Stabilized lipid formulation of apoptosis promoter” (AbbVie Inc., priority 2009, dated 2014).

Structures are written as SMILES. Further values from the same series stand in other lists.

The data set can be described thus: Solubility in lipid solvents (Example 1). In kind it is physicochemical. The following applies: ambient conditions. The protocol: Solubility of ABT-263 parent (free base, crystalline Form I) and ABT-263 bis-HCl salt was tested in a variety of lipid solvents and solvent mixtures in ambient conditions. Trademarked solvents in this study, unless identified hereinabove, are as follows (substantially equivalent products from other manufacturers can be substituted if available): • Miglyol 810™ of Sasol: caprylic/capric triglycerides; • Capmul MCM™ of Abitec: glyceryl caprylate/caprate; • Captex 300™ of Abitec: caprylic/capric triglycerides; • Labrafil M 2125 CS™ of Gattefosse: polyoxyethylene glyceryl linoleate; • Tween 20™ of Uniqema: polysorbate 20; • Labrasol™ of Gattefossë: polyoxyethylene glyceryl caprylate/caprate; • Cremophor RH40™: polyoxyethylene (40) hydrogenated castor oil. “PE-91” is Phosal 53 MCT™+ethanol, 9:1 by volume. “LOT-343” is Labrafil M 1944 CS™+oleic acid+Tween 80™, 30:40:30 by weight.
In some cases, indicated in Table 4 by an asterisk (*), solubility was initially high but precipitation occurred upon standing.

The mark [1] stands for this setting: PE-91 (Phosal 53 MCT + ethanol 9:1 by volume).

Consider `CC1(C)CCC(c2ccc(Cl)cc2)=C(CN2CCN(c3ccc(C(=O)NS(=O)(=O)c4ccc(N[C@H](CCN5CCOCC5)CSc5ccccc5)c(S(=O)(=O)C(F)(F)F)c4)cc3)CC2)C1.Cl.Cl` [ABT-263 bis-HCl salt], for which the Solubility is listed as more than 321 mg/g (Capmul MCM); less than 43 mg/g (Capmul PG-8); less than 39 mg/g (Capmul PG-12); less than 52 mg/g (Captex 300); more than 245 mg/g (Imwitor 742); less than 45 mg/g (Labrafil M 1944 CS). Further, the Solubility is on record as less than 44 mg/g (Labrafil M 2125 CS); more than 292 mg/g (Labrasol); 48.9 mg/g (Lipoid S75 MCT); less than 84 mg/g (Miglyol 810); 89 mg/g under setting [1]; more than 278 mg/g (PEG-400). Besides, the Solubility is, setting by setting: (Tween 20) more than 176 mg/g; (Tween 80) more than 125 mg/g; (castor oil) more than 78.8 mg/g; (corn oil) less than 104 mg/g; (oleic acid) less than 498 mg/g; (poloxamer 124) less than 41 mg/g. The compound further gave a Solubility (propylene glycol) of more than 337 mg/g and a Solubility (sesame oil) of less than 80 mg/g.
Take `CC1(C)CCC(c2ccc(Cl)cc2)=C(CN2CCN(c3ccc(C(=O)NS(=O)(=O)c4ccc(N[C@H](CCN5CCOCC5)CSc5ccccc5)c(S(=O)(=O)C(F)(F)F)c4)cc3)CC2)C1` [ABT-263]: the Solubility runs as follows: (Labrafil M 2125 CS) more than 290 mg/g; (Miglyol 810) less than 76 mg/g; under setting [1], more than 250 mg/g; (PEG-400) more than 200 mg/g; (Phosal 53 MCT) more than 300 mg/g; (corn oil) less than 86 mg/g. Further, the Solubility (sesame oil) is reported as less than 75 mg/g.
